Measurements published in patent US5159002A, “Method for purifying dermostatin A and dermostatin B” (Xechem Inc., priority 1990, dated 1992).

Test system: reverse transcriptase
Assay: microbe, parasite or virus in culture
Assay type: cell-based, HIV
Conditions: for % Viral Activity, RT: Table IV, added with HIV, 4 days
[1] = Human immunodeficiency virus 1, H9, 96 h, read-out: % Viral Activity, RT

SMILES | % Viral Activity, RT (conc. 0.01 (g/ml as printed)) [%] | % Viral Activity, RT (conc. 0.1 (g/ml as printed)) [%] | % Viral Activity, RT (conc. 10 (g/ml as printed)) [%] | activity at 0.01 µg/mL [1] [%] | activity at 0.1 µg/mL [1] [%] | activity at 1 µg/mL [1] [%] | activity at 10 µg/mL [1] [%] | % Viral Activity, RT (conc. 1.0 (g/ml as printed)) [%]
C[C@@H]1[C@H](O)[C@@H](C)/C=C/C=C/CC/C=C/C=C/C=C/C=C/[C@H](O[C@@H]2O[C@H](C)[C@@H](O)[C@H](N)[C@@H]2O)C[C@@H]2O[C@](O)(C[C@@H](O)C[C@@H](O)[C@H](O)CC[C@@H](O)C[C@@H](O)CC(=O)O[C@H]1C)C[C@H](O)[C@H]2C(=O)O [Amphotericin A] | 84 | 92 | 55 | – | – | – | – | –
C[C@@H]1[C@H](O)[C@@H](C)/C=C/C=C/C=C/C=C/C=C/C=C/C=C/[C@H](O[C@@H]2O[C@H](C)[C@@H](O)[C@H](N)[C@@H]2O)C[C@@H]2O[C@](O)(C[C@@H](O)C[C@@H](O)[C@H](O)CC[C@@H](O)C[C@@H](O)CC(=O)O[C@H]1C)C[C@H](O)[C@H]2C(=O)O [Amphotericin B] | – | – | – | 100 | 100 | 48 | 40 | –
C[C@@H]1[C@H](O)[C@@H](C)/C=C/C=C/CC/C=C/C=C/C=C/C=C/C(O[C@H]2O[C@H](C)[C@@H](O)[C@H](N)[C@@H]2O)CC2O[C@](O)(CC(O)C(O)CCC(O)CC(O)CC(O)CC(=O)O[C@H]1C)CC(O)C2C(=O)O (some centres unmarked) [Nystatin] | 87 | 86 | 47 | – | – | – | – | 84
